# Experimental data taken from ChEMBL document CHEMBL4888484, “Replenishing the malaria drug discovery pipeline: Screening and hit evaluation of the MMV Hit Generation Library 1 (HGL1) against asexual blood stage Plasmodium falciparum ,using a nano luciferase reporter read-out” (2022).
# Among all 150,000 compounds or so, about 540 (0.36%) showed an effect of 50% or more. The list shows a part of the results.
# Tested on: Plasmodium falciparum
# Assay: Primary screen in NF54 nanoGlo assay, in single point, at 2uM, 72h; a lower Z score goes with more inhibition
# Type: functional, Erythrocyte
# Details: timepoint 72 hour
SMILES,% Inhibition [%],Z score
COc1c(C)cc(C(=O)[C@H]2CCCN(Cc3ncc[nH]3)C2)cc1C,-14,1.97
Cc1ccc(Cn2cnc([C@@H]3COCCN3)n2)c(C)n1,0,0.02
CCN(CC)C(=O)Oc1ccc2c(ccn2Cc2ccc(F)c(F)c2)c1-c1ccc(OC)cc1,2,-0.43
O=C(NCC1CCc2ccccc2CC1)c1ccc(-c2noc(=O)[nH]2)cc1,-13,2.29
C[C@H](O)CN1CC=C(c2noc(CN(C)C(=O)N3CCCC3)n2)CC1,-16,2.13
COc1cccc(C(=O)[C@H]2CCCN(Cc3c[nH]c(C)n3)C2)c1,-14,2.08
O=C(O)c1cccnc1N1CCC[C@H]1c1cccnc1,4,-0.55
C/C=C(\C)CN(C)CCc1ccccn1,6,-0.85
Cc1ncccc1OC[C@H]1CCCN1Cc1cnn(C(C)(C)C)c1,8,-0.98
O=C(COC(c1ccccc1)c1ccccc1)N1CCC2(CC1)OCCO2,-8,1.38
CCn1nncc1CN(CCc1ccccc1)[C@H]1CCOC1,-14,1.47
CC[C@]1(CCC(C)C)C(=O)NC(=O)N(C(=O)c2cccc(Cl)c2)C1=O,-5,0.71
CCCn1nnnc1CN(C)CCc1ccccc1OC,11,-1.55
CN1C(=O)N(C)C(=O)C2(Cc3cc(C(F)(F)F)ccc3N3CCC(c4ccccc4)CC32)C1=O (stereo not given),2,-0.4
CC(=O)N[C@H]1C[C@H]2CN(Cc3ccc(C)cn3)CC(=O)N2C1,-15,1.34
CCCN(C)c1nccc(N2CCN[C@@H]3CS(=O)(=O)C[C@@H]32)n1,7,-1.3
N#Cc1ccccc1CN1Cc2ccccc2C1=N,-12,2.07
COc1cc(N2CCN(C)[C@@]3(CCNC(=O)CC3)C2)nc(OC)n1,-13,2.49
O=C(NCC1CCN(c2nc3ccccc3o2)CC1)Oc1ccccc1,-19,2.82
O=C(c1cc2ccccc2c(=O)[nH]1)N1CCC2(CC1)OCCO2,-16,1.82
NC(=O)[C@@H](c1ccc(F)cc1)n1nc(-c2cccs2)oc1=O,-5,0.99
COCc1nn(Cc2csc3c(Cl)cccc23)c(=O)o1,2,-0.19

SMILES,% Inhibition [%],Z score
CC1CCN([C@@H](C)Cn2c(=O)[nH]c3ccccc3c2=O)CC1,-2,0.39
COc1ccc(-n2cnc3cc(C(=O)N4CCC5(CC4)OCCO5)ccc32)cc1,-16,2.58
Cc1[nH]c2ccccc2c1C1CCN(Cc2cn[nH]c2)CC1,8,-0.96
CCCn1ccnc1CN(C)[C@@H](C)Cc1ncccc1C,-7,1.36
COc1ccc([C@H]2C[C@H]3CC[C@@H](C2)N3Cc2[nH]cnc2C)cc1,-7,1.42
C1=C(c2cnc3ccccc3c2)CCNC1,-8,0.98
O=C1CNC[C@H]2c3cccc(Cl)c3CCN12,3,-0.42
O=C(c1ccc(Cl)cc1)[C@H]1CCCN(Cc2ccc3nsnc3c2)C1,10,-1.53
COc1ccccc1NC(=O)N1Cc2c(C)cc(C)nc2-n2cccc2[C@H]1c1ccc(F)cc1,0,-0.04
CCn1cc(C(=O)NCc2ccc(C)o2)c2cccnc21,-13,1.32
C[C@@H](C(=O)Nc1cncc(F)c1)N1CCOCC1,-12,1.55
O=C(Cc1cccc2ccccc12)N1CCCN([C@H]2CCOC2)CC1,-15,2.52
COc1cccc(CCNCc2cccc3cn[nH]c23)c1O,1,-0.21
CN1C(=O)c2ccccc2Oc2ccc(C(=O)N3CCC4(CC3)OCCO4)cc21,11,-1.62
CC1CN(Cc2ccc(Cl)s2)CC2(CCOC2)O1 (stereo not given),-16,1.39
Cc1cc(C(=O)N2CC[C@H]3CC[C@@H](C2)N3)cc(=O)[nH]1,3,-0.43
Cc1cc(C(=O)N2CCC(c3n[nH]c(=O)o3)CC2)cc(O)n1,-8,0.88
Cc1nccc(NS(=O)(=O)c2ccc(S(=O)(=O)F)cc2)n1,-12,1.9
CN(c1ncnc2[nH]ccc12)C1CCN(CCC(F)(F)F)CC1,3,-0.61
Cc1cccc([C@H](Cn2ccnc2-c2ccco2)N(C)C)c1,-9,1.11
CN1C2CCC1CC(Oc1nc(C3CC3)ns1)C2 (stereo not given),-15,1.98
CCOc1cccc2c1cc(C(=O)NCc1ccccn1)n2Cc1ccccc1C,-1,0.14

SMILES,% Inhibition [%],Z score
COc1ccccc1NC(=O)c1ccc2oc(=O)n(Cc3ccccc3)c2c1,-2,0.22
O=C(Oc1cccc(-c2nnco2)c1)N1CCCCC1,5,-0.89
Cc1ccoc1CN1CCCC2(C1)OCCO2,-12,2.21
COc1ccc2c(c1)C1CCCNC1CO2 (stereo not given),-11,1.44
CC(C)NC(=O)c1cn(CC2CCCCC2)cc(C(=O)N2CCc3ccccc3C2)c1=O,-3,0.47
Cc1ccsc1C(C)NCC1CN2CCN1CC2 (stereo not given),0,0
CN(C)[C@H]1CN(C(=O)Cc2ccc(CO)cc2)C[C@@H]1C1CC1,-1,0.19
Fc1ccc(C[C@H]2CCOC3(CCNCC3)C2)cc1,-12,1.3
CN(CC(=O)N1CCC2(CC1)OCCO2)c1ccc(F)cc1,30,-3.38
CCOC(Cn1cc(C(=O)NC2CCC(C)CC2)nn1)OCC (stereo not given),-5,0.79
COc1ccccc1-c1cc([C@H]2CN3CC[C@H]2C[C@@H]3CN)n(C)n1,29,-3.28
CC(C)n1cc(-c2c(-c3ccccc3)ncn2[C@H]2CN3CCC2CC3)cn1,0,-0.03
O=C(C1CCOCC1)N1[C@H]2CC[C@@H]1c1cnc(-c3ccc(F)cc3)nc1C2,-23,3.27
NC(=O)c1cnc(N2CCC[C@H]2c2cccnc2)c(Cl)c1,-4,0.53
CCCCc1cn(C[C@H]2C[C@@H]3CCN2C[C@@H]3C(=O)Nc2ccccc2)nn1,25,-2.83
Cc1nn(C)cc1CNC(=O)c1c(CC2CCCC2)n(Cc2cccnc2)c(C)cc1=O,-11,1.34
Cc1cc(C)c(CNc2cc(-c3cccnc3)nc3ncnn23)c(=O)[nH]1,-4,0.5
C=CCCC(CN1C[C@H]2CC=CC[C@H]2C1)Oc1ccnc(C)n1 (stereo not given in full),3,-0.6
CN1CCN2CCN(c3ncc(C#N)c(N)n3)C[C@@H]2C1,-14,1.37
CN(C)[C@@H]1C[C@@H](CO)N(C(=O)Cc2ccc(F)cc2Cl)C1,-21,1.89
C=CCn1cc(CNCCc2ccc(CC)cc2)c(C)n1,9,-1.68
Cc1nc(-c2ccc(F)c(F)c2)c(N)c(N(C)C2CCN(C)CC2)n1,-13,1.83

SMILES,% Inhibition [%],Z score
CN1[C@@H]2CC[C@@H]1CC(OC(=O)[C@H](CO)c1ccccc1)C2 (stereo not given in full),-10,1.31
Cc1nc[nH]c1CN1C[C@H]2CC[C@@H](C1)N(C(=O)Cc1ccncc1)C2,-5,0.88
CCN1CCC2CCC(C1)N2Cc1cccs1 (stereo not given),-13,1.28
CN(C)c1ccc(C(=O)N2CCC3(CC2)c2nccn2-c2ccccc2CN3C)cc1,-16,2.12
Cc1cc(CC(C)NC2CCCc3ccc(O)cc32)n[nH]1 (stereo not given),-4,0.73
C[C@@H](Cc1cccs1)N(C)CCN1C(=O)CCC1=O,31,-3.49
Cc1ncc(CN(C)C(=O)C2C(C)(C)C2(C)C)s1,-15,2.6
COC1(CN2CCOC3CCCCC32)CCC1 (stereo not given),-12,1.66
CC(NCCCc1cnn(C)c1)C(c1ccccc1)N(C)C (stereo not given),-5,1.01
NC(=O)CCC(=O)N1C[C@H](c2cccc(F)c2F)[C@@H]2[C@H]1C1CCN2CC1,1,-0.14
Cc1nnc(CC(=O)N2C3CCC2c2ccccc23)o1,-2,0.32
CCCc1c(C(=O)Nc2ccc(O)cc2O)cnn1C1CCCC1,7,-0.88
CC1CC(C)CN(S(=O)(=O)c2ccc3c(c2)N(CC(=O)N2CCC4(CC2)OCCO4)C(=O)CO3)C1 (stereo not given),5,-0.79
CN(C)C(=O)CN1C[C@H]2CC[C@@H](C1)N(Cc1c(Cl)cncc1Cl)C2,-3,0.56
CCCS(=O)(=O)N1C[C@@H]2C[C@H](C1)c1c(-c3ccc(OC(F)(F)F)cc3)ccc(=O)n1C2,-3,0.42
CN1CCN(c2cc3c(cc2F)no[n+]3[O-])CC1,-12,1.35
COc1ccccc1C(N)=NOCC(=O)N1CCC2(CC1)OCCO2,1,-0.18
Cc1nc(CN2C[C@@H](CO)[C@H](c3ccc(Cl)cc3)C2)co1,4,-0.83
CCc1ccccc1S(=O)(=O)N1[C@@H]2CC[C@H]1Cc1nc(C)[nH]c(=O)c1C2,-8,1.26
